Read counts are not given, so values of variants with three or more changes are uncertain.
B1: OR4K15 (parent)
chain: GUUAACGGUCAUAGGCCAUGGAAACUAGGAGCACCAUUUCGCUGCCAGUGAAGAAAUGAACAAAGAAAAUCUGGGCCAGGCAGGCAUCAAAAGAAAUAGUCUUGCGCUCAACCAGAAAGUCUGUAAUCAUUUUAAGGGUA

Variants of: B1
Assay: self-cleavage, relative activity (ratio to wild type); higher = more cleavage; in vitro, sequencing; the parent is a self-cleaving ribozyme
A47G A68U U72A A95G A116G U122C gave a self-cleavage of 0.05.
For A64G A118G U122C, the self-cleavage was 0.55.
Variant A30G A56G U100C A117G A118G has a self-cleavage of 0.72.
For U2A A96C U108C, the self-cleavage was 0.02.
For A33G A63U A96G A111G, the self-cleavage was 0.02.
Work on U49C U87A A111G A114G yielded a self-cleavage of 0.02.
Variant A13C A23U U102C has a self-cleavage of 1.82.
In the case of A86U U87C U103C A116G U130C, the self-cleavage is reported as 0.08.
Work on G15A U43A A67U C109U A110G yielded a self-cleavage of 0.01.
A13G A24G G93A gave a self-cleavage of 1.
In the case of A63G U103C U130C, the self-cleavage is reported as 1.23.
In the case of U3C A23G A59G, the self-cleavage is reported as 1.29.
With A24G A54U G80U the self-cleavage was 0.18.
For A5G A11G A47G A59G A118G, the self-cleavage was 0.38.
Variant U2C A22G A62U A69G has a self-cleavage of 0.79.
Work on A66G U72A C76U yielded a self-cleavage of 0.29.
A64G A82G G138U gave a self-cleavage of 0.68.
A24G U43A A86G U122C A129G gave a self-cleavage of 0.97.
With U49C A51U A69G A78U A95C the self-cleavage was 0.13.
U2C A91U U108A U127C showed a self-cleavage of 0.02.
For A11U A27G G28U U103C, the self-cleavage was 0.31.
Variant A33C A68G U108C A114G has a self-cleavage of 0.01.
With A4G U49C U70C U130C the self-cleavage was 0.33.
In the case of U9A A60G A126G, the self-cleavage is reported as 0.71.
U39A U43A A54U A67G A114G U127C gave a self-cleavage of 0.15.
A5G A51G G106U showed a self-cleavage of 0.
A5G U39C U103C showed a self-cleavage of 1.36.
Variant A22G A52U A118G has a self-cleavage of 0.95.
With C46U A52G A89G the self-cleavage was 0.62.
A36G U38C A63G A66G gave a self-cleavage of 1.57.
A60G A89G A114G gave a self-cleavage of 0.64.
In the case of U57A A60G A94G A95G U130C, the self-cleavage is reported as 0.52.
Variant U39C U49C G53A A68G has a self-cleavage of 1.21.
Work on U9C A23G A30G U43A A66U yielded a self-cleavage of 1.17.
Variant A22G A23U A69G A86C C105U A117U has a self-cleavage of 0.06.
C10A U43A A59G gave a self-cleavage of 0.63.
In the case of G83A G106A U130C, the self-cleavage is reported as 0.01.
With A52G A82C A117G the self-cleavage was 0.31.
For U38G A52G A59G, the self-cleavage was 0.7.
Variant A51G U57C A118G U130C has a self-cleavage of 0.79.
Variant A23G A54G U100A has a self-cleavage of 1.
Work on A23G A59G U102C yielded a self-cleavage of 0.88.
In the case of A24G G44A U108C, the self-cleavage is reported as 0.02.
In the case of A54G A90G U139C, the self-cleavage is reported as 1.18.
Variant A5G G7A A95G has a self-cleavage of 1.42.
U2C U102C A118G showed a self-cleavage of 1.14.
U49C A64G A129G U132C showed a self-cleavage of 0.6.
For U2A A13G A36G C81U A118G, the self-cleavage was 0.49.
Work on A66G U102C A114G yielded a self-cleavage of 0.78.
Variant U39C A52C A55G A60G U97G G115A has a self-cleavage of 0.01.
In the case of A23U A54G U120C, the self-cleavage is reported as 0.97.
For U9C U12C A24G, the self-cleavage was 2.67.
A24G C77U A118C U122C gave a self-cleavage of 1.11.
With U12C U72A U139C the self-cleavage was 0.56.
For U72C G75C U97C U130C A135G, the self-cleavage was 0.
For U39C A69C A94G G136A, the self-cleavage was 1.63.
Work on A60G A64G A91G A118G yielded a self-cleavage of 0.23.
In the case of A33G A69G A91U, the self-cleavage is reported as 0.57.
A23U A30G A59G A66U A90G showed a self-cleavage of 0.77.
With A24G U37C A94G U108C the self-cleavage was 0.03.
In the case of A51G U103G A134G, the self-cleavage is reported as 0.
Variant A22G A27G A64U has a self-cleavage of 0.78.
With U9C A54G A118G the self-cleavage was 0.42.
In the case of U43C U100C A140G, the self-cleavage is reported as 2.39.
A22G A36G A134G gave a self-cleavage of 1.09.
Work on U38C A47U A62G U72C yielded a self-cleavage of 0.07.
Variant C17U A64U A110G has a self-cleavage of 0.06.
Work on A62G A67G U70C yielded a self-cleavage of 0.97.
Variant A22G U87A A92G has a self-cleavage of 1.44.
Work on G48U A51G A69G A116G U127C yielded a self-cleavage of 0.18.
For U9A A18G A54G, the self-cleavage was 1.48.
Variant A11G A52G A92G A114U has a self-cleavage of 0.04.
A18U A52G G53U U131C gave a self-cleavage of 0.98.
Variant U39A A52G G79A A82U A91G A92G has a self-cleavage of 0.23.
With A67G A89G A111G the self-cleavage was 0.06.
Variant A66G A111G A114G U122C has a self-cleavage of 0.
With U43A A66G U103C the self-cleavage was 1.56.
C81A A82G A91U U131A showed a self-cleavage of 0.14.
For A22G A52G C76U, the self-cleavage was 0.28.
For A24G A52G U100A, the self-cleavage was 0.58.
In the case of U70C A78C U124A, the self-cleavage is reported as 0.03.
With U9C A52G A56G A89U the self-cleavage was 1.79.
With A60U G75U A94G the self-cleavage was 0.16.
